Experimental data as given in paper PMC4336329 (PLoS ONE, 2015).
Out of some 310,000 compounds screened, about 14,000 (4.5%) showed an effect of 50% or more. The effect is printed as a negative number. The list shows a part of the results.

Each molecule was assayed against human ether-à-go-go-related gene (hERG) potassium channel (human, UniProt Q12809) (assay: primary screen, population patch clamp on CHO cells stably expressing hERG).
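Also: peak tail current of the secondary pulse compared with the same well before compound.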

Chain of human ether-à-go-go-related gene (hERG) potassium channel (Q12809 whole entry, looked up): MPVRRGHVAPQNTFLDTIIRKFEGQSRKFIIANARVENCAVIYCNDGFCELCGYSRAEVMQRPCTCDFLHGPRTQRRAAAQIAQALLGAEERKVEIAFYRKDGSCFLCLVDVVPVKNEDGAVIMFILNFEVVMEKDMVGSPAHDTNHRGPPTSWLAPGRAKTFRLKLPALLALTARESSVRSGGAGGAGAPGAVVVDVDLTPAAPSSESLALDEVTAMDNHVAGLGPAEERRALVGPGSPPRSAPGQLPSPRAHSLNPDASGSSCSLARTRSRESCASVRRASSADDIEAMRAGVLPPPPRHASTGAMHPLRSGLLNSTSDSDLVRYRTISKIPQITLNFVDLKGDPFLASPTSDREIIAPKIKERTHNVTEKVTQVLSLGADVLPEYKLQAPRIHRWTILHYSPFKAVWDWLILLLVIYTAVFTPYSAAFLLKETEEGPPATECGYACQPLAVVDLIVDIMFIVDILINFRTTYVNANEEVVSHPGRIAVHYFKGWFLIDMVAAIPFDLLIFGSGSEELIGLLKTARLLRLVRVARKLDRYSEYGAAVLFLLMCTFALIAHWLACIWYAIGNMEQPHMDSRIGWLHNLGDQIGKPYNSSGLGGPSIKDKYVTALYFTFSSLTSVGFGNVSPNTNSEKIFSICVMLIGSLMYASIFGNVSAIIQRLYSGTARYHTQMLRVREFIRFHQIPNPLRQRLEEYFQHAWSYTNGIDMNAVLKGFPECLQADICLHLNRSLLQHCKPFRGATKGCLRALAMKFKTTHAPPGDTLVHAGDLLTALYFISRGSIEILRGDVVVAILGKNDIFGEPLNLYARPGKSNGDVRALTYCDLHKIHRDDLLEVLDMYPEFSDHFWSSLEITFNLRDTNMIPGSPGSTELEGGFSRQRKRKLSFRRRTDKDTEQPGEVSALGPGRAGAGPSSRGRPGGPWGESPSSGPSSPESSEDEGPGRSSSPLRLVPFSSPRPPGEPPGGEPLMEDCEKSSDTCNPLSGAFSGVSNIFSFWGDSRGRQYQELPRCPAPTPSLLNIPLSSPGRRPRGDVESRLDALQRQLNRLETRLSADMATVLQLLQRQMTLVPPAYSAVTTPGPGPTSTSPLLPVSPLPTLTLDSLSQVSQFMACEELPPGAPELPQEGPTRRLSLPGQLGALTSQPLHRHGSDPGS

| SMILES | hERG current change (%, negative = inhibition) at 10uM |
| --- | --- |
| CCOc1cccc(C(=O)N(Cc2cccc(F)c2)C2CCS(=O)(=O)C2)c1 (stereo not drawn) | -3.61% |
| CCCSc1cc(NCCOC(=O)CCC)c([N+](=O)[O-])c2nonc12 | -28.7% |
| O=C1CC(N2CCCN(C3CC(=O)N(c4ccc(F)cc4)C3=O)CC2)C(=O)N1c1ccc(F)cc1 (stereo not drawn) | -43% |
| N=C1/C(=C\c2ccc(-c3cccc(Cl)c3)o2)C(=O)N=C2SC=C(c3ccccc3)N12 | -12.5% |
| COC(=O)/C=C/c1cnc[nH]1 | 21.5% |
| CCC(C(=O)NC1CC1)n1nc(C)c2c(C)n(-c3ccccc3)nc2c1=O (stereo not drawn) | 8.02% |
| COC(=O)c1ccc(Oc2nc(N(C)C)nc(N3CCOCC3)n2)cc1 | 9.23% |
| CC(NC(=O)/C(C#N)=C/c1ccco1)c1ccccc1 (stereo not drawn) | -9.97% |
| COc1ccc(S(=O)(=O)c2snnc2C)cc1 | 6.22% |
| O=C(NCC(O)c1ccc([N+](=O)[O-])cc1)c1cccc(S(=O)(=O)N2CCOCC2)c1 (stereo not drawn) | -13% |
| CCOC(=O)c1c(-c2ccc(OC)c(OC)c2)csc1NC(=O)C1CCCO1 (stereo not drawn) | -22% |
| CC(=O)c1cc2c(cc1NC(=O)CCc1ccccc1)OCO2 | 8.37% |
| CCc1ccccc1NC(=S)NC1CC2CCCC(C1)N2Cc1cccs1 (stereo not drawn) | -4.03% |
| Cc1nn(-c2ccccc2)c(C)c1/C=C/C(=O)OC(C)C(=O)Nc1ncc(Cl)cc1Cl (stereo not drawn) | -20.3% |
| COc1ccc(/C=C2\SC(=O)N(CCC(=O)NCCCn3ccnc3)C2=O)cc1 | -43.2% |
| Cc1cc(Cl)ccc1OCCCC(=O)NC1CCN(C)CC1 | -51.2% |
| O=C(CCN1C(=O)c2ccccc2S1(=O)=O)N1CCN(c2cccc(Cl)c2)CC1 | -41.2% |
| COc1cc(/C=C/C(=O)Nc2ccc3[nH]c(=O)[nH]c3c2)cc(OC)c1OC | -1.8% |
| C(#Cc1ccccc1)C[N+]1(CC#Cc2cccc3ccccc23)CCCC1.[Br-] | -8.37% |
| COc1ccc(S(=O)(=O)N2CCC(C(=O)NC(c3nc4ccccc4[nH]3)C(C)C)CC2)cc1 (stereo not drawn) | 13.8% |
| C/C(CC1(O)C(=O)N(C)c2ccccc21)=N\O (stereo not drawn) | 11% |
| CC(C)c1cc(C(=O)N/N=C/c2cccnc2)cs1 | -31.9% |
| Cc1c(O)ccc2c(CC(=O)N[C@@H](Cc3c[nH]c4ccccc34)C(=O)O)cc(=O)oc12 | 19% |
| COc1ccc(CNC(=O)CCCn2ccc3cc(S(=O)(=O)N4CCCC4)ccc32)cc1 | -52% |
